“And” between values parts separate entries of the source, which are not always exact repeats. Identical values can stand only once. Counter-ions that a name gives are not always drawn. Screen size: about 1,800 compounds; about 50 (3%) showed activity. This is one part of the list.
Test system: mouse p16Ink4a+/- lung fibroblasts (INKBRITE, bleomycin-injured)
Assay: percentage of GFP+ (p16Ink4a+) fibroblasts among all cells in well; higher = less depletion of p16Ink4a+ cells, active = 20 or less
Conditions: 1 µM; 3 days
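Note: fibroblasts sorted 14 days after bleomycin, GFP+ and GFP− mixed 1:1 in 384-well plates (GFP− as in-well control), imaged after Hoechst and NucView530 staining, reference wells lacked compound.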

Structure (SMILES)	percentage of GFP+
CC1=C(/C=C/C(C)=C\C=C\C(C)=C/C(=O)O)C(C)(C)CCC1 [Isotretinoin]	inactive: 38.7%
CN(C)c1cc(NC(=O)CNC(C)(C)C)c(O)c2c1C[C@H]1C[C@H]3[C@H](N(C)C)C(=O)C(C(N)=O)=C(O)[C@@]3(O)C(=O)C1=C2O [Tigecycline]	inactive: 44.9%
CCOC(=O)Nc1ccc(NCc2ccc(F)cc2)nc1N [Flupirtine]	inactive: 48.5%
Brc1c(NC2=NCCN2)ccc2nccnc12 [Brimonidine]	inactive: 48.4%
CCC(CC)CC1(C(=O)Nc2ccccc2SC(=O)C(C)C)CCCCC1 [Dalcetrapib]	inactive: 37.6%
CC(=O)O[C@]1(C(C)=O)CC[C@H]2[C@@H]3C[C@H](C)C4=CC(=O)CC[C@]4(C)[C@H]3CC[C@@]21C [Medroxyprogesterone Acetate]	inactive: 46.5%
O=S(=O)(NCCNC/C=C/c1ccc(Br)cc1)c1cccc2cnccc12	inactive: 44.2%
C[C@H](CCC(=O)O)[C@H]1CC[C@H]2[C@@H]3CC[C@@H]4C[C@H](O)CC[C@]4(C)[C@H]3CC[C@]12C [Lithocholic acid]	inactive: 51.6%
NC(CO)C(=O)NNCc1ccc(O)c(O)c1O (stereo not drawn) [Benserazide]	inactive: 43%
Nc1nc(O)c2ncn(CCC(CO)CO)c2n1 [Penciclovir]	inactive: 46.8%
CC1=C(/C=C/C(C)=C/C=C/C(C)=C/C(=O)O)C(C)(C)CCC1 [Tretinon, Tretinoin]	inactive: 36.4%
O=C1Nc2ccc(I)cc2/C1=C/c1cc(Br)c(O)c(Br)c1	inactive: 44.9%
Cc1[nH]c(/C=C2\C(=O)Nc3ccc(S(=O)(=O)N(C)c4cccc(Cl)c4)cc32)c(C)c1C(=O)N1CCN(C)CC1	inactive: 53.1%
CC(C(=O)O)c1ccc(C(=O)c2cccs2)cc1 (stereo not drawn) [Suprofen]	inactive: 38.5%
CCOc1cc2ncc(C#N)c(Nc3ccc(OCc4ccccn4)c(Cl)c3)c2cc1NC(=O)/C=C/CN(C)C [Neratinib]	inactive: 39.2%
Fc1ccc([C@@H]2CCNC[C@H]2COc2ccc3c(c2)OCO3)cc1 [Paroxetine]	inactive: 42.3%
Cn1c(=O)c2nc[nH]c2n(C)c1=O [Aminophylline, Theophylline]	inactive: 44.7%
CCn1cc(C(=O)O)c(=O)c2cc(F)c(N3CCNCC3)nc21 [Enoxacin]	inactive: 39%
CN[C@H]1CC[C@@H](c2ccc(Cl)c(Cl)c2)c2ccccc21 [Sertraline]	inactive: 51.8%
CCc1c2c(nc3ccc(OC(=O)N4CCC(N5CCCCC5)CC4)cc13)-c1cc3c(c(=O)n1C2)COC(=O)[C@]3(O)CC [Irinotecan, Irinotecan Hydrochloride (trihydrate)]	inactive: 36.1% and inactive: 37.1%
CO/C(O)=C1\C(C)=NC(C)=C(C(=O)OCC(C)C)C1c1ccccc1[N+](=O)[O-] (stereo not drawn) [Nisoldipine]	inactive: 42.2%
O=C(Nc1cccc(C(F)(F)F)c1)Nc1cc(S(=O)(=O)NC2CC2)ccc1-c1ccsc1	inactive: 42.2%

Structure (SMILES)	percentage of GFP+
CCN1CCN(Cc2ccc(Nc3ncc(F)c(-c4cc(F)c5nc(C)n(C(C)C)c5c4)n3)nc2)CC1	inactive: 30.6%
CO[C@H]1/C=C/O[C@@]2(C)Oc3c(C)c(O)c4c(O)c(c(/C=N/N5CCN(C6CCCC6)CC5)c(O)c4c3C2=O)NC(=O)/C(C)=C\C=C\[C@H](C)[C@H](O)[C@@H](C)[C@@H](O)[C@@H](C)[C@H](OC(C)=O)[C@@H]1C [Rifapentine]	inactive: 40.7%
O=C(NC[C@H](O)CO)c1ccncc1Nc1ccc(I)cc1F [Pimasertib]	inactive: 24.5%
O=c1c(O)c(-c2ccc(O)c(O)c2)oc2cc(O)ccc12 [Fisetin]	inactive: 40.8%
c1cn2cc(-c3ccc4c[nH]nc4c3)nc(Nc3ccc(N4CCOCC4)cc3)c2n1	inactive: 42.5%
C[C@@H](NCCc1ccc(O)cc1)[C@@H](O)c1ccc(O)cc1 [Ritodrine HCl]	inactive: 37.6%
Cc1[nH]c2ccccc2c1CCNC(=O)c1cccs1 [N-[2-(2-methyl-1H-indol-3-yl)ethyl]thiophene-2-carboxamide]	inactive: 39.3%
COc1c(N2CCNC(C)C2)c(F)cc2c(=O)c(C(=O)O)cn(C3CC3)c12 (stereo not drawn) [Gatifloxacin]	inactive: 43.4%
Cc1cc(/C=C/C#N)cc(C)c1Nc1ccnc(Nc2ccc(C#N)cc2)n1 [Rilpivirine]	inactive: 45.7%
COc1ccccc1S(=O)(=O)Nc1ccc2c(c1)CN(C)C(=O)N2	inactive: 30.6%
C=CCN1CCCC1CNC(=O)c1cc2nn[nH]c2cc1OC (stereo not drawn) [Alizapride]	inactive: 41.8%
CC(=O)c1cc([N+](=O)[O-])c(Sc2cccc(Cl)c2Cl)s1	inactive: 41.2%
O=C(NCCO[N+](=O)[O-])c1cccnc1 [Nicorandil]	inactive: 33.1%
NC(=O)C(c1ccccc1)(c1ccccc1)[C@@H]1CCN(CCc2ccc3c(c2)CCO3)C1 [Darifenacin]	inactive: 41.5%
O=C1CCC[C@@H]2[C@H]3CCC[N+]4([O-])CCC[C@@H](CN12)[C@@H]34 (stereo partly drawn) [Oxymatrine]	inactive: 37.4%
Cc1c(C(=O)N2CCOc3ccc(-c4ccc(N)nc4)cc3C2)ccc(S(C)(=O)=O)c1F	inactive: 40.6%
CCc1c(C(=O)NCCc2ccc(N3CCCCC3)cc2)[nH]c2ccc(Cl)cc12	inactive: 40.4%
Cc1ccc(C(=O)Nc2ccc(CN3CCN(C)CC3)c(C(F)(F)F)c2)cc1C#Cc1cnc2cccnn12 [Ponatinib]	inactive: 31.2%
CCN(CC)CCCC(C)Nc1nc(C)cc(Nc2ccc3nc(C)cc(N)c3c2)n1 (stereo not drawn)	inactive: 51.1%
C1=C/COCc2cc(ccc2OCCN2CCCC2)Nc2nccc(n2)-c2cccc(c2)COC/1 [Pacritinib]	inactive: 37%
COCC(=O)NC/C=C/c1ccc2ncnc(Nc3ccc(Oc4ccc(C)nc4)c(C)c3)c2c1	inactive: 44.9%

Source: the supplement of paper PMC11060735
